# Assay results taken from the supplement of paper PMC11417369.
# ± gives the standard deviation of the averaged measurements. This is one part of the list.
# Test system: PfAP2-G AP2 domain (GST-tagged)
# Test: gcPBM binding intensity (ln(normalized median fluorescence intensity)); higher = stronger DNA binding
# Summary of the method: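 Probes on an Agilent 4 × 180k array were primer-extended, double-stranded and 36 bp long, taken from intergenic genomic regions, with negative controls added. GST-tagged P. falciparum DNA-binding domains from E. coli, about 25 μg on average, were applied to the array for 1 h in 1× PBS containing 1% milk, 0.2 mg/ml BSA, 0.5% salmon testes DNA and 0.03% Triton X-100. Binding intensity, obtained after Alexa488 anti-GST antibody detection and a 488 nm scan, is the highest Masliner-normalised natural-log median intensity across replicate spots of either probe orientation.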
row,Sequence,gcPBM binding intensity (ln)
1,AAAAATACCTTATATATACACACTATGTTTTTCTTT [CACACA_site1192],9.96 ± 0.15
2,AAATATTAGTAACACAGACACACAAAAAAAAAAAAA [CACACA_site2175],9.96 ± 0.35
3,AAAAAAAAAAAAAAAAGTACACAAATTTTAAAAATT [XGTACX_site3006],11.6 ± 0.88
4,TTGTATTATATTGTATTATGTTTAAATGAAAAAAAA [CACACA_negctrl_site662],10 ± 0.4
5,TATTGTTACTTTATATGTACTAATTAAACATATACA [XGTACX_site6363],11.1 ± 0.89
6,AATTACTACATAAATACATGCATAATTATATATATA [TGCATGCA_site783],9.74 ± 0.19
7,TATCTCTTCATATTGTGTACATATTTTTATTTATTG [XGTACX_site4038],11.4 ± 0.72
8,ATAAAATATAAAAATTGTACGATAATAATAGTAGGA [XGTACX_site8951],10.8 ± 0.36
9,AACACTTCTTATTTATGTACTTAATTCCCAACGGAA [XGTACX_site4818],11.3 ± 0.63
10,AAATATATATATATATATATATATATATATATATAT [CACACA_negctrl_site677],10 ± 1
11,AAATGAATAAATAAGACACACACGAAAATAAGTAAA [CACACA_site71],10.2 ± 0.11
12,TGATCAGATAGACACACACACAAAAAAAAAAAAAAA [CACACA_site7805],10.1 ± 0.48
13,TTATAAAATTACTTGGTGCATTAGAATATTTCAATA,10.1 ± 0.3
14,ACTTATATATTATGTTGTCCGTCCATTCTCTTTATC [XGTACX_site3769],11.2 ± 0.61
15,TACATGTATAAATAAGCACACATGTGGATATGTACA [CACACA_site93],10.7 ± 0.27
16,CAAAATATTTTTATAACACACATATATATAATGTGC [CACACA_site4767],9.9
17,TTTTCATTCAATTATATTTATATATATATATATATA [GTGCAC_negctrl_site538],9.91 ± 0.39
18,TAAAAAATTTTATATTCACACACATATATATATATA [CACACA_site8109],10.1 ± 0.29
19,TAAAAGTATATATATACACACATAAATATATATGTA [CACACA_site663],9.86 ± 0.14
20,TACACAAGGGGAAAAATATATATATATATATATATA [TGCATGCA_negctrl_site217],9.86 ± 0.46
21,TTTTTTTTGGAATTCACACAAATATAACATGGGTAT [CACACA_site5185],10.2 ± 0.3
22,TTCTTTTCTTTAGTAGAATGTAAAAAATATAATCTT [XGTACX_negctrl_site290],9.84 ± 0.17

row,Sequence,gcPBM binding intensity (ln)
1,AAAATTTAAAGCATGACACACAATTATATTATGTGC [CACACA_site3435],9.72 ± 0.085
2,TTGTGAAATAAAATTTGTACACACATATATATATAT [XGTACX_site1078],11.2 ± 0.86
3,TTTTTTTTTTTTTTTGCACACACCATATTTATAGAA [CACACA_site3310],10 ± 0.55
4,AGAAAAGTGATATATACACACTTATATTTATTTATA [CACACA_site7350],9.875 ± 0.007
5,AAAAAAAAAAAAAAAACACACATACATACATACATA [CACACA_site6125],10.3 ± 0.22
6,TTTTATAAGGTGAAAAGTACATATAACTTATTTTAC [XGTACX_site5572],11.2 ± 0.75
7,TATTGTCTATAATAAACACACAATATTAAAAATATA [CACACA_site6624],9.93 ± 0.28
8,ATCTTTCCTATTTGTAGTACAAAAAAAAAAAAAAAA [XGTACX_site5485],11.4 ± 1
9,TTAAATGATGTAAACACACACATATACATTATTATA [CACACA_site3162],9.895 ± 0.049
10,ATATATATATATATATGTACTTATAATAATATTCAA [XGTACX_site2593],11.3 ± 0.81
11,ACGTGTGATTATAATTGTACTTTAATGTAAGAATGA [XGTACX_site1109],11.2 ± 0.76
12,TTATTTTATTTTTTTGTGCACATATATATTTATAAA [GTGCAC_site9615],10.7 ± 0.42
13,AATTTTATTTAATTTTTTTGGGAAATGATAAAATTT [CACACA_negctrl_site934],9.88 ± 0.2
14,AAAATTAATTATTACAAAAATGAAAAGACATATTTT [GTGCAC_negctrl_site735],9.73 ± 0.17
15,TCACATTTTGGACACGTGCACATATATTTGATACAT,10.9 ± 0.4
16,ATTGTAAGTAAACACACACACATATATCTGTATTTA [CACACA_site4542],9.98 ± 0.12
17,TACCATGTTCAAATTACACACATATAATGCAATATA [CACACA_site7034],10.1 ± 0.25
18,CTGAAATTAACAAAAGTGCATAAAAATAAAAAATAT [GTGCAC_site9652],10.2 ± 0.19
19,ATTTATATATAAATGTGTACATATATATATATAAAC [XGTACX_site7592],11.5 ± 0.81
20,CAATGCAAGGCTTAAAAAAATGGGCATATTATATAT [GTGCAC_negctrl_site304],10.2 ± 0.16
21,AATATTATATTAAAATGTACAAAAATGAATTACTTT [XGTACX_site1473],10.8 ± 0.3
22,TTTTTTTACAACATTACACACAAATATTCTGGGTTA [CACACA_site3755],9.96 ± 0.042

row,Sequence,gcPBM binding intensity (ln)
1,AATAATTGTTAAAGGTGTACAATACCTACATAAGAA [XGTACX_site4215],11.5 ± 0.95
2,AAATGGCAATAATGGACACACAAATGTTGTTATATA [CACACA_site2819],10.7 ± 0.46
3,GGAATTGAAAAATCAGCACACACACTAATACATACA [CACACA_site9059],10.3 ± 0.25
4,ATTTACCAGACCATATGTACATACATAAAACACACA [XGTACX_site3788],11.3 ± 0.76
5,AAAAAGGAAATTTACACACACATATAATATACATTA [CACACA_site3296],9.92 ± 0.014
6,GTTCTACAAGCCACTGCATGCTGATATAGAATAAAT [TGCATGCA_site138],9.95 ± 0.13
7,ATATGATTATTATTATATAAATTATAAAGTCTAATA [GTGCAC_negctrl_site586],9.565 ± 0.078
8,TTCTTTGCTTTTCAAACACACAAAAGTTATTATAGT [CACACA_site6390],10.01 ± 0.078
9,TCATATATCCTTATCACACATATAATAAATTCCCTT [CACACA_site4457],9.84 ± 0.14
10,AATATTTCTCATTTTGTGCACTGAAAAATGTAATAT,10.3 ± 0.32
11,CTTTTTAATTAATACACACACACACGGATATAAATA [CACACA_site7145],10.4 ± 0.24
12,TATTTTTTTTGTGTGTGTCCTCATGTAATACTGCAA [XGTACX_site1380],11.1 ± 0.71
13,ATATATATATATATATGTACTTAAAAAATATATACA [XGTACX_site8952],11.2 ± 0.8
14,AAAAAAAAAAAAAAAAAAAAAAAAAAAATACGAAAG [GTGCAC_negctrl_site729],10.9 ± 0.48
15,AATCATTTATTGATGGTGCAATATACCATCTAATGA [GTGCAC_site9440],10.05 ± 0.064
16,TATATTAAACTTTGCACACATAATTTAACTACAAAG [CACACA_site3441],10.2 ± 0.18
17,AAAAAAAAAAAACACACACACACACCCAAATATATA [CACACA_site150],10.06 ± 0.085
18,CATAATACATATAACACACACAATTATACATAAAAT [CACACA_site3233],10.1 ± 0.13
19,TTTTGAAAAAATTTTTATAAAAGAATAAAATTATTA [XGTACX_negctrl_site570],9.66 ± 0.16
20,AATATTTTACAATACACATGCAAATAATATTCTAAA [TGCATGCA_site618],9.845 ± 0.021
21,ATTTCTATAAAAATAATCTACATTTTTTTTTTTTTT [CACACA_negctrl_site917],9.57 ± 0.19
22,TATATACATATATATATATGTATAGATAGATACATT [CACACA_negctrl_site1511],9.74 ± 0.11

row,Sequence,gcPBM binding intensity (ln)
1,TAACCACAATTTTAATGTACATATATATTTATATAT [XGTACX_site8968],11 ± 0.54
2,TAAAAATGGAAACACACACACATAAATATATTTTAT [CACACA_site2513],10.05 ± 0.035
3,TTTTTCCATATTGTAGCATGCAGTATATATATCATG [TGCATGCA_site530],9.92 ± 0.014
4,TCTCATTTTCCCTAAAAAAAAAAATAAATAAAAATA [TGCATGCA_negctrl_site580],9.82 ± 0.32
5,AATGGGTTACACATATGTACATAAAATATAAAAAAT [XGTACX_site3440],11.4 ± 0.84
6,ATATTATTTATGTATGCATGCGGCGAAATGGGCTTG [TGCATGCA_site28],10.3 ± 0.2
7,ATGCTTTTGTCATGTGCACACACGTATATATTATAT [CACACA_site4163],10.5 ± 0.18
8,TTTTATCGATATATCTGTACATATTACTTATAATAA [XGTACX_site57],11 ± 0.65
9,TGCTATAATTTATATACACACAAATATATACTCATA [CACACA_site6111],9.98 ± 0.11
10,TATAACTATTTATAATGTACTCATGTATAATTATAT [XGTACX_site7913],11.3 ± 0.88
11,TTAATTTATTTATGCACACATATATAATTACACATA [CACACA_site4544],10.1 ± 0.27
12,TTTATATATTATATAAATATTATTATACTTTAAATA [TGCATGCA_negctrl_site236],9.635 ± 0.021
13,ACATGTATTTATAAGAGTACATATGTGTGCATGTTT [XGTACX_site7946],11.4 ± 0.7
14,TTTTTTTCCTTATCTATATATAATCAAATTTTCTAC [CACACA_negctrl_site867],9.855 ± 0.064
15,AACTTTTAGAAGAACACACACATATAGATTATGACC [CACACA_site6256],10.2 ± 0.014
16,TTATAACAAATATAGAGTACTAAAATTTTACGTTAT [XGTACX_site1410],11 ± 0.52
17,TTTATAATATACATAACACACAATTATTATTTCTTA [CACACA_site3624],9.68 ± 0.085
18,AAGGTTATTTATATATGTACTTAATATATATATATG [XGTACX_site886],11.1 ± 0.75
19,TCGAACATTAACATAACACACATATATATATATATA [CACACA_site2900],10.4 ± 0.95
20,TATATATATATAACATGTACATAAAATACATTTATA [XGTACX_site7370],11 ± 0.72
21,ACCATCCTTAATACTTATTTTTTCACAATTAAGTAA [GTGCAC_negctrl_site269],10.5 ± 0.36
22,TTTTTTTTTTCTTGTTGTACTTTTAATAATTCATAT [XGTACX_site4704],11.5 ± 0.93
